Read counts are not given, so values of variants with three or more changes are uncertain.
B1: LINE1-full (parent)
chain: UACGUAGGUGGUUUUCCCCUGAUAGUGCUAAGGGGGCCUGGAAGUUUGGACUGGGCAGAGCUCAACACAGCGUGGCAAAGUGGCUGUGGCUAGACUGCCUCUCUGGAUUCCUCGUCACUCAGCAGGGCAUCUCUGAGAGAAAUGCC

Variants of: B1
Experiment: self-cleavage, relative activity (ratio to wild type); higher = more cleavage; in vitro, sequencing; the parent is a self-cleaving ribozyme

Variant | self-cleavage
A2C U12C U23C C84A | 0.47
U9A U26A U87C | 0.12
C37U A67U A124G | 0.03
A67U U115C U143C | 0.14
U9A U85A A129G | 0.03
A2G U39A C113A | 2.63
U14A C61U U87C U100C G106U U109C A136G | 0
A59C U81A U102C C128U | 0.88
G4A U23A A78G | 0.91
U9C G36A U45G A141G | 0.47
U20A A22C U62C A65G G127U | 0.26
G54A U62C U104A | 0.04
U9C G40A U87C U100C | 0.74
A24G A64U A79G U108C | 0.77
U13A A50G U108C A129G | 1.53
A64G A65G A69G | 0
U14A A22G A138G A141G | 2.25
A24G A79G U85C | 0.3
U62A A78G U115C | 0.06
U15C A30G U119C A129G A141U A142G | 1.84
U9C A64G U102A A107G C128U | 0.58

Variant | self-cleavage
G35A G44A U81G U104C | 1.23
C18U A42G U47G U115C A129U | 2.04
U9C U62C C76U A94G | 0.07
U26C U62C C90U | 0.06
U9C G27A A65G U85C | 0.08
A59G A92G A107G | 0
G41A C120A U143C | 1.17
U5C C68G U85C A107G | 0.09
U9C G48U A129C | 0.76
A42G A57U U134C | 0.16
A69G A77G A140U | 0.51
U9C U20C U130C A140U | 1.8
U12C A77G A129U | 1.31
U73A U81C A94G A117U A124U A129G U143C | 0
A64G A94G C98U U104C | 0.22
G35A A77U A78G C111U U132C | 0.29
U5C A24U U29C U45A A94G A140G | 0.77
A42G A50G U115A A136G | 1.53
A64U U73A A78G | 0.21
A57C U62A U100A U109C U132C | 0
U13A U14A C76U U104C | 2.3

Variant | self-cleavage
A6G A57G A78G A140G | 0.38
U9A G74A A141G | 0.94
A30U U45C A94G | 0.4
U9C A107G A117U | 1.8
A77G U109C C118A C120U | 1.99
A2G A57U A136G A142G | 0
U1A U73A A107U U130C | 1.84
U13C A50G A136G | 0.77
A22G A64U U108C U119C A121G | 0.66
G41A A69G U91A A142G | 0.1
U20C U26A U73A U109C A124G | 0.5
U1A U96A U132C U134A | 0
U14C U73C U132C | 1.44
U9C U26C C28A U96A U119C A140G | 0.35
U29A A30G U52A U87C A142G | 0.56
U13A U29C U85A | 0.17
A43G A59G U85C C123U | 0
U9G U96A A141G | 0.08
A59G U62C U73A A138G | 0.16
U52C U62C U73C | 0
U9A U73C U112C A141C | 0.88

Variant | self-cleavage
G44U A121G U134C | 1.59
A69G A117G C133U | 0
U23C A57G A136U A140G | 1.53
U15C A92G C128U | 0.18
U20C U39C U132C A140G | 1.38
A22C U45C A77U | 1.13
U5G G74A U130C A140G | 0.21
C76U A117G A142G | 2.25
U12G A78G A138G | 0.84
A77G U96C U109C | 0
U13C A30G U73A U81A A107G U143A | 1.88
A2G A129U U143C | 0.53
A42U A57G A65G U102C A129U A140G | 0
G8A U73C U104C | 2.55
A30C U45C U52C G93C | 0
U14C G53C U115A | 1.42
U13C U23C A69G U109A | 0.35
A30C A50G A65G U87A | 0.22
A6G G10A U39A U108A | 0.63
G33A G127A A136G | 1.49

From the RNAGym collection of RNA variant scans (doi:10.7554/elife.90254)
